# Results as given in EP4692351A1, “ANTI-CD25 ANTIBODY AND ANTI-CD25 ANTIBODY-DRUG CONJUGATE” (priority 2023, dated 2024).
# B1: hMAb1A-ADC (conjugate)
# heavy: EVQLVESGGGLVQPGGSLRLSCAASGFTFNNYYMVWVRQAPGKGLEWVAYISTGGGTTYYRESVKGRFTISRDNSKSTLYLQMNSLRAEDTAVYYCTTSVYFSDGSSHYDGEWFAYWGQGTLVTVSS[letters of human IgG1 constant region left out]
# light: DIVMTQSPDSLAVSLGERATINCKASESVSTRMHWYQQKPGQPPKLLIYKASNLASGVPARFSGSGSGTDFTLTISSLQAEDVAVYYCQQSWNGWAFGQGTKVEIKRTVAAPSVFIFPPSDEQLKSGTASVVCLLNNFYPREAKVQWKVDNALQSGNSQESVTEQDSKDSTYSLSSTLTLSKADYEKHKVYACEVTHQGLSSPVTKSFNRGEC
# Tests used:
# [1] = test system: iTreg; test: Cell killing assay on iTreg at varying ratios of iTreg and NK cells; assay type: cell-based, human; conditions: 10 to 0.001 µg/mL; iTreg 5 × 10^3 cells/well, NK cells 25 to 1.25 × 10^3 cells/well; 3 days
# Protocol: The cells were prepared in accordance with the method of 20)-1-1 except that culturing was carried out for 3 days.
# PBMC of a healthy individual was separated from blood using Ficoll-Paque PLUS (Cytiva). NK cells were purified from PBMC using EasySep(TM) Human NK cell isolation Kit (STEMCELL Technologies). The obtained NK cells were cultured overnight under conditions of 37°C and 5% CO2 in IMDM (Thermo Fisher Scientific Inc.) medium containing 10% CTS Immune Cell SR (Thermo Fisher Scientific Inc.) (hereinafter, referred to as 10% CTS + IMDM medium).
# The target cells iTreg were adjusted with 10% CTS + IMDM medium and inoculated at 5 × 10^3 cells/25 µL/well to 96 well clear U bottom microplate (Corning Inc.). Subsequently, the effector NK cells were adjusted with 10% CTS + IMDM medium and inoculated in the range of 25 to 1.25 × 10^3 cells/25 µL/well. The antibody or the antibody-drug conjugate was added at 50 µL/well in the final concentration range of 10 to 0.001 µg/mL. The cells were cultured for 3 days under conditions of 37°C and 5% CO2. […] 100 µL of the solution in each well was added to 96 well white flat bottom microplate (Corning Inc.), and luminescence intensity was measured using a plate reader (EnSight: PerkinElmer, Inc.).
# A cell survival rate was calculated according to the following expression. […]
# [2] = test system: CD25-negative human tumor cell line Daudi; test: Cell proliferation suppression assay, CD25-negative Daudi; assay type: cell-based; conditions: CD25-negative cells; 6 days; CellTiter-Glo
# Protocol: (§1) A CD25-positive human tumor cell line Karpas-299 was subcultured in RPMI1640 (Thermo Fisher Scientific Inc.) medium containing 2 mM glutamine (Life Technologies Corp.) and 20% FBS under conditions of 37°C and 5% CO2. A CD25-negative human tumor cell line Daudi was subcultured in RPMI1640 medium containing 10% FBS under conditions of 37°C and 5% CO2.
# (§2) The cultured Karpas-299 was inoculated at 1 × 10^3 cells/50 µL/well in RPMI1640 medium containing 2 mM glutamine and 20% FBS to 96 well clear U bottom microplate (Corning Inc.). cMAb1_hIgG1LALA was added at 0.015 µg/mL to 15 µg/mL, and control hIgG1LALA-ADC and cMAb1_hIgG1LALA-ADC were added at 0.0015 µg/mL to 1.5 µg/mL. The cells were cultured for 6 days under conditions of 37°C and 5% CO2. The incubated plate was left standing at room temperature for 30 minutes. Reagent solution of CellTiter-Glo(TM) Luminescent Cell Viability Assay (Promega Corp.) was added at 100µL/well, and the plate was mixed at room temperature for 10 minutes under light shielding using a plate mixer (Taitec Corp.). 100 µL of the solution of each well was added to each well of 96 well white flat bottom microplate (Corning Inc.), and luminescence intensity (relative light unit (RLU)) was measured using a plate reader (Ensight: PerkinElmer, Inc.) and used as an index for the number of cells.
# Cell proliferation suppressive activity against the CD25 expression-negative human tumor cell line DauDi was measured in the same manner as above using RPMI1640 medium (Thermo Fisher Scientific Inc.) containing 10% FBS (GE Healthcare Bio-Sciences Corp.). Daudi was inoculated at 1 × 10^4 cells/50 µL/well. […]
# (§3) The test was carried out in accordance with 9)-1-2. […] 100 µL/well of the reaction solution was transferred to 96-well White Flat Bottom plate, and luminescence intensity (relative light unit (RLU)) was measured using a plate reader (Ensight: PerkinElmer, Inc.) and used as an index for the number of cells.
# [3] = test system: CD25-positive human tumor cell line Karpas-299; test: Cell proliferation suppression assay, CD25-positive Karpas-299; assay type: cell-based; conditions: antibody 0.015 to 15 µg/mL, ADC 0.0015 to 1.5 µg/mL; 6 days; CellTiter-Glo
# Protocol: as §1
# as §2, with “Reagent solution of CellTiter-Glo(TM) Luminescent Cell Viability Assay (Promega Corp.) was added at 100µL/well, and the plate was mixed at room temperature for 10 minutes under light shielding using a plate mixer (Taitec Corp.).” left out, “cells. […]” for “cells.”
# as §3
molecule,measurement,setting,value
B1,proliferation suppressive effect on iTreg (cell survival rate),[1],"exhibited a proliferation suppressive effect on iTreg, irrespective of NK cells"
same,cell proliferation suppressive activity against Daudi,[2],exhibited no cell proliferation suppressive activity
same,cell proliferation suppressive activity against Karpas-299,[3],exhibited cell proliferation suppressive activity at a lower concentration
